# Some of the results follow.
# System: PfSIP2 AP2 domain 1 (GST-tagged)
# Experiment: gcPBM binding intensity (ln(normalized median fluorescence intensity)); higher = stronger DNA binding
# Procedure, shortened: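 Binding of GST-tagged P. falciparum DNA-binding domains, expressed in E. coli and used at about 25 μg on average, was carried out for 1 h in 1× PBS containing 1% milk, 0.2 mg/ml BSA, 0.5% salmon testes DNA and 0.03% Triton X-100. The target was an Agilent 4 × 180k array of primer-extended double-stranded 36-bp intergenic genomic probes plus negative controls, read with Alexa488 anti-GST antibody at 488 nm. Binding intensity is the highest Masliner-normalised natural-log median intensity across replicate spots of either probe orientation.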
row,Sequence,gcPBM binding intensity (ln)
1,TTTCTTTAACAAGTTAAACACACATACATATATACA [CACACA_site8810],7.06
2,ATCATTTCTATATAAGCACACACGTGGAATTTTTTT [CACACA_site2786],7.04
3,TTACTTATATGCATAGTGCAAATTTGGTAAATATCT,8.81
4,CACATACAGATATATACACACAAATATAAATACACA [CACACA_site6512],7.21
5,AATAAATATAAAAATGCACACACACTAATAAAAAAA [CACACA_site8201],7.79
6,AAAATAAATATATTATCCACGTTGTATATATATATA [XGTACX_negctrl_site136],9.42
7,AGCGTATAACATATGACACACACACCGACATACACA [CACACA_site8532],6.91
8,ATATATATATGGAAGTGTACTTATATAGCATACTAG [XGTACX_site5130],8.77
9,TACGTATCATAATTTTATTTTATATATATTCACAAA [XGTACX_negctrl_site144],6.91
10,AAATTTTTATAATTATCACACATTGAATTGTGGTCT [CACACA_site4343],6.71
11,ATTCACAAATATATGGTGCATAATATATATATATAT [GTGCAC_site9674],10.6
12,AACAATTATTGTAATGCATGCACTGAATATAGAAAG [TGCATGCA_site889],9.15
13,AATATGTAAATATGGGTGCTTTAAAATATATTCATT [GTGCAC_site9583],7.39
14,TTCCAATGATAAAATTGTACTTGAAGAAAATTTTTT [XGTACX_site4607],6.67
15,GCTAATAATAAAAGCATAATGAACAAACACCCAGTA [CACACA_negctrl_site806],7.29
16,TTATATAACACGGGGAGGACACAAGAAATAAAGAGC [XGTACX_site2148],7.65
17,TTTTTCTGTTTTTATAGCCTTCTCATAATACATAAA [TGCATGCA_negctrl_site355],7.14
18,TATACGCAGAAACACACACACAAAAAAAAAAAAAAA [CACACA_site427],7.12
19,TATAATAAATCGAACTGTACATATATATATATATAT [XGTACX_site7097],9.65
20,ATTCGGATCTATAAGTGTACACAATCTAGCGAAAAG [XGTACX_site3088],6.9
21,TTTATTCAAATATAATGTACTTTCTACAAATTCAAT [XGTACX_site8119],6.81
22,CATATATAAATATATACACACATATATATATATATA [CACACA_site1365],9.43
23,ATTTTTTTTGCTAAGTGTACACAAATGTTTATTAAT [XGTACX_site7440],7.49

row,Sequence,gcPBM binding intensity (ln)
1,CAGATAAGATTTTGTGGTACTATTTATTAAATTAGA [XGTACX_site2644],6.68
2,ATATTTTCCCTTTATAGGAGCACAAAAATTAAATGT [CACACA_negctrl_site1114],7.09
3,TTTTGGTTAATTCCCCCCATTACATTATGTCATGTC [CACACA_negctrl_site229],8.48
4,TTTCATTTTTTTACATGTACGCAAAAGTGTGTAGTT [XGTACX_site6582],7.04
5,TAATACTTATATAAAGGTACACAATTTAACCGAATG [XGTACX_site7173],7.06
6,GTAAATATTCATATATGTACTTATGATATTTGCTAA [XGTACX_site6828],6.8
7,ACATATATATATATATATTGATTTATTTATTTCCCT [CACACA_negctrl_site659],7.44
8,ATATATATATATAAATGTACAAAAATATATATGTAA [XGTACX_site4531],9.37
9,AAGAAAGAGTTCTGTTGTACAAAATATTAATATGTA [XGTACX_site7213],7.1
10,CTTCCTTAGGAATGTACACACATATAAAATATGTTG [CACACA_site6355],7.07
11,TTTATTAAGAAACACACACACACACCCAAAATAAAA [CACACA_site242],7.15
12,CTTTATTATAAGATTACACACATGTGTTCTAATTTA [CACACA_site7479],6.98
13,TAATTAACTTTATATGCATGTTAAAAATGTTATAAG [TGCATGCA_site761],6.97
14,TATAAACAAAACAAAACATGCATAATACTATAAATT [TGCATGCA_site333],6.86
15,AACAAAATAAAAAGTAATCTTATTTATTAAAATTTT [CACACA_negctrl_site419],6.64
16,AAAGAAAGAAAACACACACACATATATATATATCAA [CACACA_site3743],7.06
17,TTTTTGTCTGCATACGCACACACGTGGACCATCTTA [CACACA_site8303],7.05
18,TATATATATATATGTACACACACACCGATAAATAAA [CACACA_site8041],9.63
19,CTATTTAAAATATGAACACACATTATTTGTTTTAGA [CACACA_site2713],6.79
20,ATATCATTATATAGTTGTACATATTTATTTATTTAT [XGTACX_site8995],7.06
21,AAAAAAAAAAATACTAGTACGTAAAATTATATAAAT [XGTACX_site3019],6.97
22,AATATAGGAATATGCACACATATATACCTACATACA [CACACA_site4939],7.21
23,ATTTCCCATACACGTTGTACAATGTAGAGAAAGTAT [XGTACX_site4586],6.98

row,Sequence,gcPBM binding intensity (ln)
1,GATATGTGTATAATATGTACATATATATATATATAT [XGTACX_site6531],9.33
2,TTTTACGTGAGTAATACACACATATAAGTTTATATA [CACACA_site4120],6.74
3,GGCATACACGAACACACACACACACGCACATATATA [CACACA_site6426],7.7
4,TATAACTTTTTTAATACACACAAATATTTATTTATA [CACACA_site7425],7.04
5,TACCACTTTCGAAGTAGTACATGGCTTTTTTTTTTT [XGTACX_site8379],6.8
6,TGTATGTTAAATACAACACACAAAAAAAAACAAGTT [CACACA_site4324],6.85
7,TATACAGATAAATACACACACATATATATATATATA [CACACA_site4178],9.72
8,ATATATATATGTGTGTGTACATATGATTTCGCACTT [XGTACX_site4449],8.85
9,GTTATAATTTAGTCAAGTACATGCGTATGTATATTC [XGTACX_site3763],6.92
10,CACAGAAATATTCTTATACACACTGTTCTTATATTC [CACACA_site288],6.82
11,TAATATATATTATATACACACATATATATATATATA [CACACA_site428],9.6
12,TGAAATAACCCATGTGCATGCACTTCAATAACTGAA [TGCATGCA_site1041],8.63
13,TATAAATTAAAATCAGTGCATATTTTGAAAAACCTC,8.89
14,ATATTATTATTAGTTTCACACATTTAATGAAACTAA [CACACA_site5677],7.05
15,TATAAATTATAAATTGCACACATATTTTTATATTTA [CACACA_site8974],7.03
16,TATATATATATATATTGTACATATTAATATTAGAAA [XGTACX_site8923],9.19
17,ATTACCATATAAAACACACAAACATACATACATACA [CACACA_site3729],8
18,TGGAGGTCAGTTCACAGTACCCAGAAACTCTACGAG [XGTACX_site2007],6.61
19,TTACATGTAAAAGGTACACACATTAGATATACAAAT [CACACA_site6651],6.94
20,AATACTCAAAAGAATCGTACAAACAACACTCCCACG [XGTACX_site7564],7.14
21,TATCATACCTTTTAATGTACACACATTTCTTTTTTG [XGTACX_site1655],7.39
22,TAATATATAAAAAGATGTACTTTTGCAAGTTCCTTT [XGTACX_site8519],6.72
23,GGACTTTATAAAAATGGTACACGCAATTCTATAATC [XGTACX_site6515],6.89

row,Sequence,gcPBM binding intensity (ln)
1,GGTACATACAAACACACACACAAAAAAAAAAAAATA [CACACA_site1577],7.2
2,ATATATATATATGTATGTACGTATGTATGTATGAAT [XGTACX_site4857],9.19
3,TATTGTATAAAAATAACATGCAATCCTTATACTGCT [TGCATGCA_site345],6.75
4,TGTACAGTAAATACAACACACATTTGTATAAATATA [CACACA_site4705],6.96
5,AATGACATTCTTACACGTACAAAATAAAAAATAAAA [XGTACX_site6932],7.19
6,TATATATTATATTCATGTACGTAAAAATTTTGAATA [XGTACX_site6734],7.1
7,ATTTATTTTATAATATATAAATGATATATCTTATTA [CACACA_negctrl_site66],6.56
8,CCATATGATATATATTGTACATTATATATTATTTCT [XGTACX_site1697],6.92
9,TATGTTGTTTATTTAGTGCATATTTAAATATTATAA [GTGCAC_site9601],9.09
10,TTTTCTTTCTTGTTTCGTATATTATAAAAAAAAAAG [CACACA_negctrl_site854],7.25
11,GTATTTTGCATAAATGCATGTAAATATATACCTACC [TGCATGCA_site957],7.28
12,TATTTGGGTATTTTTACACACATTAAAATATATATA [CACACA_site5800],7.05
13,CAGTTGTTAATTTGTGTGCACCAAATATTATACATA,11.2
14,ACATATGAATATAATACACACTTGTATTCTTAATAT [CACACA_site5085],6.94
15,ATAATTCCATAAAATAGACACACGAATGTATAATAT [CACACA_site477],7
16,TGTAGATAAAATAAACGTACGTATTGATTTTTTTCA [XGTACX_site1610],6.72
17,TATTTGTAAAGACATGCATGGTACTTTTAAAACATA [TGCATGCA_site7],7.16
18,TTAATATTTGTTCTGATCCTTTTATTCAACTTTTTT [CACACA_negctrl_site536],6.77
19,TGGTAATACCCATACACACACACATACACATATATA [CACACA_site8877],7.12
20,TCTAATTTAAAATACACACACATATCTATAATATAT [CACACA_site7029],6.85

# — the supplement of paper PMC11417369
